Results as given in PubChem BioAssay AID624296 (National Center for Advancing Translational Sciences (NCATS), 2012).
Hit rate of the full screen: of about 350,000 compounds, about 9,900 (2.8%) were called active. The shares of active, inactive and inconclusive entries below differ from those in the screen. The call rests on the fitted dose curve; in most records, active means well fitted activation curve with a large enough effect; inconclusive means small, poorly fitted or top-dose-only effect; inactive means no such curve, though single readings can be large or run the other way. No potency is given beside an inconclusive call; the fits are too rough. A structure can be active in one record and inactive in another.

Assay: A quantitative high throughput screen for small molecules that induce DNA re-replication in MCF 10a normal breast cells. Further: nearly all actives have a fitted effect of over 50% in size.
Settings: MCF 10A DNA re-replication, Hoechst nuclear intensity, 48 h; series mostly up to 46.1 µM
Potency means the concentration at half of the fitted maximal effect; tags describe the fitted curve by direction and shape.

| SMILES | Potency |
| --- | --- |
| CNC(=O)c1cccn(Cc2cc(C(F)(F)F)cc(C(F)(F)F)c2)c1=O | inconclusive [activator, single point] |
| O=C1NC(=O)C(Cc2ccccc2)C(=O)N1 | inactive |
| COC(=O)C1=C(c2ccccc2)C[C@@H]2CC[C@H]1N2C(=O)NCC1CC1 | inconclusive [activator, single point] |
| O=C(/C=C/c1ccc(Br)cc1)NC(=S)N1C[C@H]2C[C@H](C1)c1cccc(=O)n1C2 | inactive |
| CCNC(=S)NCCC1=c2ccccc2=N/C1=C\c1c(O)n(C)c(=O)n(C)c1=O | inconclusive [activator, single point] |
| C/C(=N\Nc1cccc2ccccc12)c1c(O)n(Cc2ccccc2)c(=O)[nH]c1=O | inconclusive [activator, single point] |
| C=CC1CN2CCC1CC2C(OC(C)=O)c1ccnc2ccc(OC)cc12 (stereo not given) | inactive |
| Cc1nn(Cc2ccccc2Cl)c(C)c1C(=O)OCC(=O)NC1CCCC(C)C1C (stereo not given) | inconclusive [activator, single point] |
| O=C1/C(=C\c2ccc(Cl)c(Cl)c2)N2CCC1CC2 | inconclusive [activator, single point] |
| Cc1cc(C=O)c(C)n1C(C)C | inconclusive [activator, partial curve, poor fit] |
| Fc1ccccc1CN1CCN(c2ccc(Cl)cc2)CC1 | inconclusive [activator, single point] |
| CC(C)OC(=O)C1C2c3ccccc3C(c3ccccc32)C1C(=O)O (stereo not given) | inconclusive [activator, single point] |
| Cc1ccc(/C=C2\C(=O)NC(=S)N(c3ccc(F)cc3)C2=O)s1 | inconclusive [activator, single point] |
| COc1ccc(Cn2c(O)c(/C=N/NC(=O)c3ccccc3O)c(=O)[nH]c2=O)cc1 | active: 4.61 µM |
| Cn1c(O)c(C2=NNC(c3ccc(Cl)cc3)C2)c(=O)n(C)c1=O (stereo not given) | inactive |
| COc1ccc2c(c1)C13CCCC[C@@H]1C(C2)N(C)CC3 (stereo not given in full) | inconclusive [activator, partial curve, poor fit] |
| O=C1NC(=O)N(c2ccccc2)C(=O)/C1=C/c1ccoc1 | inconclusive [activator, single point] |
| NCCc1ccc(O)cc1 | inconclusive [activator, single point] |
| Cc1c(C=C2C(=O)N(C)C(=O)N(C)C2=O)c(=O)n(-c2ccccc2)n1C | inconclusive [activator, single point] |
| CCOC(=O)C1(c2ccccc2)CCN(CCC(=O)Nc2ccc(F)cc2)CC1 | inconclusive [activator, partial curve, poor fit] |
| CCN(CC)S(=O)(=O)N1CCC(C(=O)N2CCC3(CC2)OCCO3)CC1 | inactive |
| CCOc1cccc(C2NCc3ccccc3-n3cccc32)c1O (stereo not given) | inconclusive [activator, partial curve, poor fit] |
| O=c1c2ccccc2nc(CSc2ncnc3nc[nH]c23)n1-c1ccccc1 | inconclusive [activator, partial curve, poor fit] |

| SMILES | Potency |
| --- | --- |
| O=c1[nH]c(=S)n(-c2ccccc2F)c(O)c1C=Nc1ccc(N2CCOCC2)cc1 | inconclusive [activator, single point] |
| CC(C)N(CC(O)c1cccc([N+](=O)[O-])c1)C(C)C (stereo not given) | inactive |
| O=C(c1ccc2c(c1)OCO2)N1CCC2(CC1)OCCO2 | inactive |
| CC1([N+](=O)[O-])COP(=O)(Nc2cccc(Br)c2)OC1 (stereo not given) | inactive |
| Cc1cc(C)c(Cn2c(C(=O)O)c(C=O)c3ccccc32)c(C)c1 | active: 6.51 µM |
| O=C(Nc1ccc(Cl)cc1)Nc1nccs1 | active: 7.31 µM |
| CN1C(=O)/C(=C\c2ccc(N3CCCCCC3)cc2)C(=O)NC1=S | inactive |
| CC(=O)c1ccc(OC(=O)N2CCOCC2)cc1 | inconclusive [activator, partial curve, poor fit] |
| O=C1CC2(CCCC2)CC(=O)N1CCCCN1CCN(c2ncccn2)CC1 | inconclusive [activator, full curve, poor fit] |
| O=C(/C=C/c1ccc(F)cc1)NNC(=O)CCN1CCN(Cc2ccccc2)CC1 | active: 10.3 µM |
| COCC(C)OC(=O)c1c(N)n(Cc2ccco2)c2nc3ccccc3nc12 (stereo not given) | inactive |
| Cc1ccc(CNCCc2ccccc2F)cc1 | inconclusive [activator, partial curve, poor fit] |
| CCCNC(=O)c1c(N)n(Cc2ccc3c(c2)OCO3)c2nc3ccccc3nc12 | active: 0.651 µM |
| CC(C)(C)C(=O)O[C@H]1CC[C@@]2(C)C(=CC(=O)C3C2CC[C@]2(C)C(=O)[C@@H](F)CC32)C1 (stereo not given in full) | inconclusive [activator, single point] |
| c1ccc(OCc2ccc(CCCN3CCOCC3)cc2)cc1 | active: 23.7 µM |
| COc1nc2ccccc2c(=O)n1-c1ccc(Cl)cc1 | inconclusive [activator, partial curve, poor fit] |
| O=C(COC(=O)c1ccccc1)Nc1ccc(Cl)cc1C(=O)c1ccccc1 | inconclusive [activator, single point] |
| CC1CN=C(Nc2ccccc2)S1 (stereo not given) | inactive |
| Cc1nn(Cc2ccccc2)c(Cl)c1C(=O)OCC(=O)Nc1cccc2ccccc12 | inconclusive [activator, single point] |
| CCCCCCCCCC(=O)O[C@H]1CC[C@H]2[C@@H]3CCC4=CC(=O)CC[C@]4(C)[C@H]3CC[C@]12C | inconclusive [activator, partial curve, poor fit] |
| Cc1ccccc1-n1c(/C=C/c2ccccn2)nc2ccccc2c1=O | active: 18.4 µM |
| COC(=O)C1=C(c2ccc(F)cc2F)C[C@@H]2CC[C@H]1N2C(=O)NCCOc1ccccc1Cl | inactive |
